# Sequences with one replicate were seen in a single cluster, so their values are uncertain.
# System: ATP
# Assay: switch fluorescence ratio, 500 uM ATP over buffer (Cy3 cluster intensity, sum of 5 cycles each) (fold (ratio)); higher = stronger signal-on switching upon ATP binding; sequences stand for … in TCGTCGGCAGCGTCAGATGTGTATAAGAGACAGTTTTTTTTTTTTTTTTTTTTTTTTT…TC
# Conditions: aptamer strand: ATP DNA aptamer (quencher-CACCTGGGGGAGTATTGCGGAGGAAGG + anchor), 100 nM annealed; ATP concentration: 500 uM; one replicate
# How it was run: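 Cy3-labelled switching-strand clusters on a modified Illumina MiSeq flow-cell were annealed to 100 nM quencher-labelled ATP aptamer, imaged in selection buffer, then imaged after 15 min with 500 uM ATP at 22 °C. Five buffer/ATP cycles ran, with NaOH stripping and re-annealing between them. The fluorescence ratio is summed target-cycle over summed buffer-cycle Cy3 intensity per cluster, averaged per switch-domain sequence. Clusters outside 100-1000 RFU were excluded.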
# 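Further: ATP exposure 15 min at 22 °C before imaging.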
row,Sequence,switch fluorescence ratio
1,GCATTTTGTA,0.994
2,GCATTTTTGA,0.954
3,GCCAAAGGAT,1.01
4,GCCAAATTGA,0.948
5,GCCAATTCCT,1.01
6,GCCACGACCG,1.13
7,GCCACGCCCC,1.95
8,GCCACGCCGG,1.03
9,GCCACTATTT,1.01
10,GCCAGACACT,1.02
11,GCCAGCATGC,1.12
12,GCCAGCCTTG,0.997
13,GCCAGGACTT,1.02
14,GCCAGGCTCG,1.01
15,GCCATACAAT,0.993
16,GCCATACAGC,0.981
17,GCCATAGATA,1.03
18,GCCATGAAAC,1.03
19,GCCATTTGTA,0.958
20,GCCCACATTG,1.05
21,GCCCACCTGT,1.02
22,GCCCATAATA,1.03
23,GCCCCAACGA,0.961
24,GCCCCAAGCG,1.05
25,GCCCCAGCGG,1.19

row,Sequence,switch fluorescence ratio
1,GCCCCATAAT,1.03
2,GCCCCCGAAT,1.09
3,GCCCCTTTGT,1.01
4,GCCCGGGCG,1.02
5,GCCCGGGTGA,2.7
6,GCCCTGCAAA,1
7,GCCCTGTTCC,0.997
8,GCCCTTTGAG,0.982
9,GCCGAAAAGT,0.984
10,GCCGACGGCT,0.987
11,GCCGAGAAGA,1.07
12,GCCGAGACGG,1.01
13,GCCGAGGTTC,1.01
14,GCCGAGTAAC,1.08
15,GCCGAGTGTT,0.98
16,GCCGCACAGC,1.91
17,GCCGCCCCTT,0.975
18,GCCGCCGCAC,1.92
19,GCCGCGAGAG,2.95
20,GCCGCTCGTA,0.96
21,GCCGCTTAA,1.27
22,GCCGGAAGGG,0.961
23,GCCGGAGAAG,0.993
24,GCCGGATGGG,1.1
25,GCCGGCCCTG,0.958

row,Sequence,switch fluorescence ratio
1,GCCGGCGATG,1.02
2,GCCGGCGCAA,2.26
3,GCCGGGACTT,1.03
4,GCCGGGCGAG,1
5,GCCGGGGTAT,1.01
6,GCCGGGGTTT,0.997
7,GCCGGGTCTC,1.04
8,GCCGGTCAAT,1.01
9,GCCGGTCCTT,0.988
10,GCCGTCACAT,1
11,GCCGTGACGC,0.994
12,GCCGTTGGCA,1.01
13,GCCGTTGTTA,0.989
14,GCCTAACGGA,1.08
15,GCCTAATCCG,1.05
16,GCCTAATGAT,0.962
17,GCCTACGAT,1.08
18,GCCTACGTTC,1.06
19,GCCTAGGTAT,1
20,GCCTAGGTGC,2.7
21,GCCTCCTTGT,1.02
22,GCCTCGAATT,0.98
23,GCCTGATTGG,0.978
24,GCCTGCCCCA,1.12
25,GCCTGCTACT,1.02

row,Sequence,switch fluorescence ratio
1,GCCTGCTCGG,1
2,GCCTGGAAGA,0.974
3,GCCTGGGGA,1.04
4,GCCTTACGCA,1.16
5,GCCTTACGGC,1.02
6,GCCTTCCATG,1.28
7,GCCTTCCTGG,1.44
8,GCCTTGAAAT,1.05
9,GCCTTGAAGA,1
10,GCCTTGGACA,1.04
11,GCCTTTATTG,0.961
12,GCGAAAAAAC,0.951
13,GCGAACCTCA,1.1
14,GCGAACTAAG,1.01
15,GCGAAGCGAA,0.985
16,GCGAAGGGAT,1.03
17,GCGAATCGAC,1.15
18,GCGACACTAG,0.987
19,GCGACACTTA,1.07
20,GCGACAGATA,1.05
21,GCGACAGTTT,0.967
22,GCGACGCTTT,1.58
23,GCGACGGCGG,1.03
24,GCGACGTAAG,1.01
25,GCGACTACCT,1.34

row,Sequence,switch fluorescence ratio
1,GCGAGATTAT,0.965
2,GCGAGCTGCG,0.99
3,GCGAGGCGAG,0.997
4,GCGAGGCGGT,1.08
5,GCGAGGCTTG,0.996
6,GCGAGGGTTA,1.02
7,GCGATACTTA,1.5
8,GCGATAGGCA,1.01
9,GCGATCAGGA,0.98
10,GCGATCGTTA,1.01
11,GCGATGGTTA,1.03
12,GCGATTTTCC,1.13
13,GCGATTTTGT,1.01
14,GCGCATTTAT,1.05
15,GCGCCAGG,1.3
16,GCGCCCCGGG,1.04
17,GCGCCGGAAA,1.06
18,GCGCCGGGC,0.974
19,GCGCGCGATC,1.28
20,GCGCGGTTTC,1.04
21,GCGCGTATTA,1.01
22,GCGCTATAGA,1.01
23,GCGCTATCCG,0.961
24,GCGCTATGGG,0.973
25,GCGCTATGGT,1.11

row,Sequence,switch fluorescence ratio
1,GCGCTCTAGC,1
2,GCGCTGTATT,1
3,GCGGAAAGTT,0.999
4,GCGGAACGAT,1.03
5,GCGGACTAG,1.03
6,GCGGATGAAG,1.1
7,GCGGCAAT,1.12
8,GCGGCACTGG,1.06
9,GCGGCTGTTC,0.996
10,GCGGGACCTG,1.02
11,GCGGGAGAGA,1.02
12,GCGGGCCACT,1.01
13,GCGGGCTTGT,1.01
14,GCGGGGGTC,0.981
15,GCGGGGTGCG,1.04
16,GCGGGTATCA,0.999
17,GCGGTAAAGT,0.99
18,GCGGTAATGG,1.03
19,GCGGTATTTA,1.02
20,GCGGTTGGCG,1
21,GCGTAAGGAC,1.1
22,GCGTACAATA,1.06
23,GCGTAGAACT,0.993
24,GCGTAGTCTT,1.01
25,GCGTAGTGCT,0.991

row,Sequence,switch fluorescence ratio
1,GCGTCCCGGC,0.97
2,GCGTCCTAGC,1
3,GCGTCGACGT,1.03
4,GCGTCGGGGC,0.925
5,GCGTCTATCT,0.963
6,GCGTCTGCAC,1.07
7,GCGTCTGCTC,0.98
8,GCGTGATATA,1.01
9,GCGTGGTGTA,1.04
10,GCGTGTGGCA,1.01
11,GCGTGTTTGC,1.04
12,GCGTTACCCT,0.998
13,GCGTTAGTTT,0.978
14,GCGTTATCCT,1.15
15,GCGTTCAAGC,1.04
16,GCGTTCATGC,1.01
17,GCGTTCTACA,1.01
18,GCGTTGAAAC,0.968
19,GCGTTGATTG,0.982
20,GCGTTGCGGA,0.956
21,GCGTTTGAGT,0.991
22,GCGTTTTCTC,0.979
23,GCTAAAACTT,0.981
24,GCTAAACGTA,1.06
25,GCTAATATTC,1.02

row,Sequence,switch fluorescence ratio
1,GCTAATCTTC,0.983
2,GCTAATGCGG,0.989
3,GCTACCCCA,2.13
4,GCTACGTGTA,1.04
5,GCTACGTTG,1.07
6,GCTACGTTTC,1.24
7,GCTACTAACT,1.15
8,GCTAGAAGCC,0.912
9,GCTAGACTGT,1.01
10,GCTAGAGGC,1.03
11,GCTAGCGAT,1.03
12,GCTAGGAATC,1.02
13,GCTAGGATGT,1.03
14,GCTAGGGAAT,1.05
15,GCTAGGTTGT,0.996
16,GCTAGTCTTC,0.955
17,GCTAGTTGAT,1
18,GCTATAACGA,1.13
19,GCTATACTTA,1.19
20,GCTATCAAGC,0.998
21,GCTATCAAGT,0.984
22,GCTATCGTAG,1.01
23,GCTATGGCGC,1.02
24,GCTATTTTAA,0.972
25,GCTATTTTCC,1.07
